From article PMC10531988
Results are given in words; binding and its absence hold for the method and conditions named. Binding seen in cells or lysates may run through a third protein. Some entries that bind do so weakly or less than the wild type. For part of these data: Tags and fused reporters may be left off the sequences shown.

By UniProt entry, the sequences of proteins in these tests, tags left out.
UniProt Q9NXV2: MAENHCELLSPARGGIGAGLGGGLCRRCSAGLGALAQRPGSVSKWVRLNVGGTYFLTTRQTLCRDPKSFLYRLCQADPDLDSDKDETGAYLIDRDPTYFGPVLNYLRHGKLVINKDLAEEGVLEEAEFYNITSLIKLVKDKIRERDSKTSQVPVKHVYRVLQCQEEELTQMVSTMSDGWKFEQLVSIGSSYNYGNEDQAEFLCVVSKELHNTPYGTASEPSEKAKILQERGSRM
UniProt Q9BSF8: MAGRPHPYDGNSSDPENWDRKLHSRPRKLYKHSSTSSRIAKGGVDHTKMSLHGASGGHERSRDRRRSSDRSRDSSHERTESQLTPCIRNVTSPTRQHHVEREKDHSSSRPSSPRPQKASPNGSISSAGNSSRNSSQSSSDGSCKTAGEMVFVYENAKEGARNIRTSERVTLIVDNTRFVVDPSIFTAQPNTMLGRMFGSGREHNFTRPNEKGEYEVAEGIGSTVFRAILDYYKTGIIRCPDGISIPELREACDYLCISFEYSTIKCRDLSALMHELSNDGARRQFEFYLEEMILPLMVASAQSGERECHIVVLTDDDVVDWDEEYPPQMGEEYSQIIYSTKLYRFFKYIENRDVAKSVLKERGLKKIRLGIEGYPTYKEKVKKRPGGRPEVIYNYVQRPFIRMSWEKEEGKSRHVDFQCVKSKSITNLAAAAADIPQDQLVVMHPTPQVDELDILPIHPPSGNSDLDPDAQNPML
UniProt Q14681: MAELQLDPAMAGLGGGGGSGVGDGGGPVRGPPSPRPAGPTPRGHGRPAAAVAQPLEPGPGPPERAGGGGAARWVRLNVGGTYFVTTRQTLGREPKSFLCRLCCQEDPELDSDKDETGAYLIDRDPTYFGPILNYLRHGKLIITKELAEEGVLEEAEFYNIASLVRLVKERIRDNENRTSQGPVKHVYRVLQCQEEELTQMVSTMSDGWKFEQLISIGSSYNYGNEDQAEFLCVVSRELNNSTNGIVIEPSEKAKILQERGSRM
UniProt Q9Y597: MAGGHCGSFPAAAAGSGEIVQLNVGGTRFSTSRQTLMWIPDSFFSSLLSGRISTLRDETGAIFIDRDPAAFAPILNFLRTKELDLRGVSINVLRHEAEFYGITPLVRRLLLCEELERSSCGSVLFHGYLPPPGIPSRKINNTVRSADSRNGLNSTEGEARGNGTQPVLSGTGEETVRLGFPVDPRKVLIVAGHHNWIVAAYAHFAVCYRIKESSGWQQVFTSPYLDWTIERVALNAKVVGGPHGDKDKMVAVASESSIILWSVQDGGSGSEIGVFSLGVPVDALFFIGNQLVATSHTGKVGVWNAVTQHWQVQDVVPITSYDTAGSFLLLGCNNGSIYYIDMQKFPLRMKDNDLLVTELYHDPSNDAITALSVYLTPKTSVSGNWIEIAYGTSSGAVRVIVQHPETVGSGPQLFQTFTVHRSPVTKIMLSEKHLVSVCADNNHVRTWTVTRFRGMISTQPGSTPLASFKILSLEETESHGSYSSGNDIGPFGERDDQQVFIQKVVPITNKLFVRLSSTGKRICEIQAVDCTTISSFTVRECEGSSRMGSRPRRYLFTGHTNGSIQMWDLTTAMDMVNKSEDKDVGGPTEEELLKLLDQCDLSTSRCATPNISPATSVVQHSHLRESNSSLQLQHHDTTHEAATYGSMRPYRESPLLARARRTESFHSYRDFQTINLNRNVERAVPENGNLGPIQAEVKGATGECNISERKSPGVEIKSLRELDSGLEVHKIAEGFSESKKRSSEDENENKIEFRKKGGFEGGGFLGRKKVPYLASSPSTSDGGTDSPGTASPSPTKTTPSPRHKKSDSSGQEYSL
UniProt Q8WVF5: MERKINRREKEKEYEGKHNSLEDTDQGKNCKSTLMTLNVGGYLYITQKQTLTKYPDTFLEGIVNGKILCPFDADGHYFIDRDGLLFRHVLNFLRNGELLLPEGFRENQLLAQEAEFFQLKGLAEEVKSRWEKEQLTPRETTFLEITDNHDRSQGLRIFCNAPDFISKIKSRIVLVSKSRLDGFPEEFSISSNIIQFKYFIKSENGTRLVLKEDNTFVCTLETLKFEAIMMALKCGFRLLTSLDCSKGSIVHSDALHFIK
UniProt Q6ZWB6: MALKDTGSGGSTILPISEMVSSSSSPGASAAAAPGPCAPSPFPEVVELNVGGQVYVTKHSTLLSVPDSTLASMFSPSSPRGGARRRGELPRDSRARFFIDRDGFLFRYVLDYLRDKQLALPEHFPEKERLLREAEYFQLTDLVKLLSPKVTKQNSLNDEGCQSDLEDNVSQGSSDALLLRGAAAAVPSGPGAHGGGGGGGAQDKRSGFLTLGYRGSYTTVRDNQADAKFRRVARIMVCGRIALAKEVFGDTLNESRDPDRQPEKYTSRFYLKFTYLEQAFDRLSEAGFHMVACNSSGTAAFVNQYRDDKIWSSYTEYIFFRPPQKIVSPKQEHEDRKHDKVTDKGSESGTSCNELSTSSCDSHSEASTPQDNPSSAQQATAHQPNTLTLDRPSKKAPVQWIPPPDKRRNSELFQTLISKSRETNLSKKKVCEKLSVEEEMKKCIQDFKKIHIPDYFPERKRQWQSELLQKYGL
UniProt Q96CX2: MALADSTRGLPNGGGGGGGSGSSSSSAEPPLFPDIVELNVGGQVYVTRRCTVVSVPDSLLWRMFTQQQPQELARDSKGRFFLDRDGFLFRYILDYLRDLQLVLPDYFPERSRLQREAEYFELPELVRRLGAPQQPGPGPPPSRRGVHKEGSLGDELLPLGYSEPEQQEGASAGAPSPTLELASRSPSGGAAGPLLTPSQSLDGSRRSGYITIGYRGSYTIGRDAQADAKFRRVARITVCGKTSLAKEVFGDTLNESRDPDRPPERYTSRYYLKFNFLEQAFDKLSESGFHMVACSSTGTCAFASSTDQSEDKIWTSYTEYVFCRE
UniProt Q68DU8: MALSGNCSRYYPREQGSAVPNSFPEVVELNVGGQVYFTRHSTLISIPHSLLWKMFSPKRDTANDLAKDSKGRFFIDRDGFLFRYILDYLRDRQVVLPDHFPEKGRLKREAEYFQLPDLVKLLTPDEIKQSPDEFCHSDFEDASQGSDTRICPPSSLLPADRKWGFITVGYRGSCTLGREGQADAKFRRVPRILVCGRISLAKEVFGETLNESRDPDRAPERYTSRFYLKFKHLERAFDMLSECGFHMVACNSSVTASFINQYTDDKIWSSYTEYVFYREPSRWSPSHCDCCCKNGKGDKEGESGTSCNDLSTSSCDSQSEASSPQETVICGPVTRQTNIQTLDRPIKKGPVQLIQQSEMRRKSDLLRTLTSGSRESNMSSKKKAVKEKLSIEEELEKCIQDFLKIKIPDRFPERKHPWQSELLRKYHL
UniProt Q8N5Z5: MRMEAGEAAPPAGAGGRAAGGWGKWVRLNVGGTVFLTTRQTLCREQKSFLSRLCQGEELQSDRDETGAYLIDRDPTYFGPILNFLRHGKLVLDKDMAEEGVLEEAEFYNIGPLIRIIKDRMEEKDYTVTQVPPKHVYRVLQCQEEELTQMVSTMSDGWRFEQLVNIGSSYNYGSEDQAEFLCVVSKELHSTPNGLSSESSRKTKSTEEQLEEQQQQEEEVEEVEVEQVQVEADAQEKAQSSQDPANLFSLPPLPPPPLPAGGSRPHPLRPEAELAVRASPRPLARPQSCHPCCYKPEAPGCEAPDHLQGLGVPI
UniProt Q8TBC3: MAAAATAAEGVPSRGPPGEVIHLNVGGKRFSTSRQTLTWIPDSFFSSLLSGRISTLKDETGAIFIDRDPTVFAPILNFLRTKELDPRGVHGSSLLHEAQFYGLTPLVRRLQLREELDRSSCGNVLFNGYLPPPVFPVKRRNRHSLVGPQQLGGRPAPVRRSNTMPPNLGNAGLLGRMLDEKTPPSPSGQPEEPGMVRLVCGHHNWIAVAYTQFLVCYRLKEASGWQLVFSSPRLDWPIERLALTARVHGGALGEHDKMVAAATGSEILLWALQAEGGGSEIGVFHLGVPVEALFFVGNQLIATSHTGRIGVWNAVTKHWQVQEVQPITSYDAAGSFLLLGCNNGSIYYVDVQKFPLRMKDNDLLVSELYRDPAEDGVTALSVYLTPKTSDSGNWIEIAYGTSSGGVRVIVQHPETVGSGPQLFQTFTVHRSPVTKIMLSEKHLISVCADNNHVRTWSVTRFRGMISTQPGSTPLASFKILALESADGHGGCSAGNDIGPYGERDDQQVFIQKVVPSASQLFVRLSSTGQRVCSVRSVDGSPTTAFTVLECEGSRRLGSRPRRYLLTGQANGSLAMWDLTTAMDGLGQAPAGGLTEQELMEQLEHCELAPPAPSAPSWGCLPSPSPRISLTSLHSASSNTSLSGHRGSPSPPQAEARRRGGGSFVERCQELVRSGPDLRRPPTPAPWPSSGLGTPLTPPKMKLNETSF
UniProt Q6PI47: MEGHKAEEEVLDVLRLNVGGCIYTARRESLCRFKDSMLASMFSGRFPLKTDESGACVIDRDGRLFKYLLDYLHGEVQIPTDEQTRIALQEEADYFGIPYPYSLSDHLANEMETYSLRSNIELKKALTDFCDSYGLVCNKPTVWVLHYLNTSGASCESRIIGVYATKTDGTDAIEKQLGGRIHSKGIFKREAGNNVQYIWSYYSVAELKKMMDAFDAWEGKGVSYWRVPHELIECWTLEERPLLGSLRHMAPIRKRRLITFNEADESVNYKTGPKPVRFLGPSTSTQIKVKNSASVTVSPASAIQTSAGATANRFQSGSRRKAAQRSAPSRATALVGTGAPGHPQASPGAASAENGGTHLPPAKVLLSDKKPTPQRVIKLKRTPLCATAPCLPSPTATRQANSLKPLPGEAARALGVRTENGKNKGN
UniProt Q7Z5Y7: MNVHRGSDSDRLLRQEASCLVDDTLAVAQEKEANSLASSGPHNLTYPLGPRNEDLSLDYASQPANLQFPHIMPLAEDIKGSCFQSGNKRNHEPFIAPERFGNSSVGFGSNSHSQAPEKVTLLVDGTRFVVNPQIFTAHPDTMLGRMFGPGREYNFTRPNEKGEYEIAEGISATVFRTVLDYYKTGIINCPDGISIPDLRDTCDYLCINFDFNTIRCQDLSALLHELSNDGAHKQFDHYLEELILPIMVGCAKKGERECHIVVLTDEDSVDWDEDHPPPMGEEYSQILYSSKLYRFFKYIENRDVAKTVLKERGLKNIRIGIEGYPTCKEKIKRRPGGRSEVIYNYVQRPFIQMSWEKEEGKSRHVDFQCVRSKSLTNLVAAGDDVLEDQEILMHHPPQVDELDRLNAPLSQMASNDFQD

B1: KCNRG-myc-flag (protein, UniProt Q8N5I3 1-272)
chain: MSSQELVTLNVGGKIFTTRFSTIKQFPASRLARMLDGRDQEFKMVGGQIFVDRDGDLFSFILDFLRTHQLLLPTEFSDYLRLQREALFYELRSLVDLLNPYLLQPRPALVEVHFLSRNTQAFFRVFGSCSKTIEMLTGRITVFTEQPSAPTWNGNFFPPQMTLLPLPPQRPSYHDLVFQCGSDSTTDNQTGVRYVSIKPDNRKLANGTNVLGLLIDTLLKEGFHLVSTRTVSSEDKTECYSFERIKSPEVLITNETPKPETIIIPEQSQIKK
B2: KCTD15-myc-flag (protein, UniProt Q96SI1 1-283)
chain: MPHRKERPSGSSLHTHGSTGTAEGGNMSRLSLTRSPVSPLAAQGIPLPAQLTKSNAPVHIDVGGHMYTSSLATLTKYPDSRISRLFNGTEPIVLDSLKQHYFIDRDGEIFRYVLSFLRTSKLLLPDDFKDFSLLYEEARYYQLQPMVRELERWQQEQEQRRRSRACDCLVVRVTPDLGERIALSGEKALIEEVFPETGDVMCNSVNAGWNQDPTHVIRFPLNGYCRLNSVQVLERLFQRGFSVAASCGGGVDSSQFSEYVLCREERRPQPTPTAVRIKQEPLD
B3: KCTD21-myc-flag (protein, UniProt Q4G0X4 1-260)
chain: MSDPITLNVGGKLYTTSLATLTSFPDSMLGAMFSGKMPTKRDSQGNCFIDRDGKVFRYILNFLRTSHLDLPEDFQEMGLLRREADFYQVQPLIEALQEKEVELSKAEKNAMLNITLNQRVQTVHFTVREAPQIYSLSSSSMEVFNANIFSTSCLFLKLLGSKLFYCSNGNLSSITSHLQDPNHLTLDWVANVEGLPEEEYTKQNLKRLWVVPANKQINSFQVFVEEVLKIALSDGFCIDSSHPHALDFMNNKIIRLIRYR
B4: KCTD14-myc-flag (protein, UniProt Q9BQ13 1-255)
chain: MWQGCAVERPVGRMTSQTPLPQSPRPRRPTMSTVVELNVGGEFHTTTLGTLRKFPGSKLAEMFSSLAKASTDAEGRFFIDRPSTYFRPILDYLRTGQVPTQHIPEVYREAQFYEIKPLVKLLEDMPQIFGEQVSRKQFLLQVPGYSENLELMVRLARAEAITARKSSVLVCLVETEEQDAYYSEVLCFLQDKKMFKSVVKFGPWKAVLDNSDLMHCLEMDIKAQGYKVFSKFYLTYPTKRNEFHFNIYSFTFTWW
B5: KCTD10-myc-flag (protein, UniProt Q9H3F6 1-313)
chain: MEEMSGESVVSSAVPAAATRTTSFKGTSPSSKYVKLNVGGALYYTTMQTLTKQDTMLKAMFSGRMEVLTDSEGWILIDRCGKHFGTILNYLRDGAVPLPESRREIEELLAEAKYYLVQGLVEECQAALQNKDTYEPFCKVPVITSSKEEQKLIATSNKPAVKLLYNRSNNKYSYTSNSDDNMLKNIELFDKLSLRFNGRVLFIKDVIGDEICCWSFYGQGRKIAEVCCTSIVYATEKKQTKVEFPEARIYEETLNILLYEAQDGRGPDNALLEATGGAAGRSHHLDEDEERERIERVRRIHIKRPDDRAHLHQ
B6: KCTD13-myc-flag (protein, UniProt Q8WZ19 1-329)
chain: MSAEASGPAAAAAPSLEAPKPSGLEPGPAAYGLKPLTPNSKYVKLNVGGSLHYTTLRTLTGQDTMLKAMFSGRVEVLTDAGGWVLIDRSGRHFGTILNYLRDGSVPLPESTRELGELLGEARYYLVQGLIEDCQLALQQKRETLSPLCLIPMVTSPREEQQLLASTSKPVVKLLHNRSNNKYSYTSTSDDNLLKNIELFDKLALRFHGRLLFLKDVLGDEICCWSFYGQGRKIAEVCCTSIVYATEKKQTKVEFPEARIFEETLNILIYETPRGPDPALLEATGGAAGAGGAGRGEDEENREHRVRRIHVRRHITHDERPHGQQIVFKD
B7: KCTD10-Nluc (protein, UniProt Q9H3F6 1-313)
chain: B5 chain
B8: KCNRG-Nluc (protein, UniProt Q8N5I3 1-272)
chain: B1 chain
B9: KCTD21-Nluc (protein, UniProt Q4G0X4 1-260)
chain: B3 chain
B10: KCTD19-Nluc (protein, UniProt Q17RG1 1-926)
chain: MEESGMAHESAEDLFHFNVGGWHFSVPRSKLSQFPDSLLWKEASALTSSESQRLFIDRDGSTFRHVHYYLYTSKLSFSSCAELNLLYEQALGLQLMPLLQTLDNLKEGKHHLRVRPADLPVAERASLNYWRTWKCISKPSEFPIKSPAFTGLHDKAPLGLMDTPLLDTEEEVHYCFLPLDLVAKYPSLVTEDNLLWLAETVALIECECSEFRFIVNFLRSQKILLPDNFSNIDVLEAEVEILEIPALTEAVRWYRMNMGGCSPTTCSPLSPGKGARTASLESVKPLYTMALGLLVKYPDSALGQLRIESTLDGSRLYITGNGVLFQHVKNWLGTCRLPLTETISEVYELCAFLDKRDITYEPIKVALKTHLEPRTLAPMDVLNEWTAEITVYSPQQIIKVYVGSHWYATTLQTLLKYPELLSNPQRVYWITYGQTLLIHGDGQMFRHILNFLRLGKLFLPSEFKEWPLFCQEVEEYHIPSLSEALAQCEAYKSWTQEKESENEEAFSIRRLHVVTEGPGSLVEFSRDTKETTAYMPVDFEDCSDRTPWNKAKGNLVRSNQMDEAEQYTRPIQVSLCRNAKRAGNPSTYSHCRGLCTNPGHWGSHPESPPKKKCTTINLTQKSETKDPPATPMQKLISLVREWDMVNCKQWEFQPLTATRSSPLEEATLQLPLGSEAASQPSTSAAWKAHSTASEKDPGPQAGAGAGAKDKGPEPTFKPYLPPKRAGTLKDWSKQRTKERESPAPEQPLPEASEVDSLGVILKVTHPPVVGSDGFCMFFEDSIIYTTEMDNLRHTTPTASPQPQEVTFLSFSLSWEEMFYAQKCHCFLADIIMDSIRQKDPKAITAKVVSLANRLWTLHISPKQFVVDLLAITGFKDDRHTQERLYSWVELTLPFARKYGRCMDLLIQRGLSRSVSYSILGKYLQED
B11: KCTD11-Nluc (protein, UniProt Q693B1 1-232)
chain: MLGAMFRAGTPMPPNLNSQGGGHYFIDRDGKAFRHILNFLRLGRLDLPRGYGETALLRAEADFYQIRPLLDALRELEASQGTPAPTAALLHADVDVSPRLVHFSARRGPHHYELSSVQVDTFRANLFCTDSECLGALRARFGVASGDRAEGSPHFHLEWAPRPVELPEVEYGRLGLQPLWTGGPGERREVVGTPSFLEEVLRVALEHGFRLDSVFPDPEDLLNSRSLRFVRH
B12: KCTD9-Nluc (protein, UniProt Q7L273 1-389)
chain: MRRVTLFLNGSPKNGKVVAVYGTLSDLLSVASSKLGIKATSVYNGKGGLIDDIALIRDDDVLFVCEGEPFIDPQTDSKPPEGLLGFHTDWLTLNVGGRYFTTTRSTLVNKEPDSMLAHMFKDKGVWGNKQDHRGAFLIDRSPEYFEPILNYLRHGQLIVNDGINLLGVLEEARFFGIDSLIEHLEVAIKNSQPPEDHSPISRKEFVRFLLATPTKSELRCQGLNFSGADLSRLDLRYINFKMANLSRCNLAHANLCCANLERADLSGSVLDCANLQGVKMLCSNAEGASLKLCNFEDPSGLKANLEGANLKGVDMEGSQMTGINLRVATLKNAKLKNCNLRGATLAGTDLENCDLSGCDLQEANLRGSNVKGAIFEEMLTPLHMSQSVR

Molecular target: KCTD5-Venus (human) (UniProt Q9NXV2)
Test: co-IP; HEK293 cells co-transfected 1:1; lysate (1% Triton-X, 150 mM NaCl); IP of Venus-tagged KCTD5 or its fragments with anti-GFP antibody and Dynabeads Protein G, 2 h, +4 °C; Western blot with anti-myc antibody

Molecule | binding
B1 | binds
B2 | binds
B3 | binds
B4 | binds
B5 | binds
B6 | binds

Molecular target: KCTD5-Venus (human) (UniProt Q9NXV2)
Test: FRET or BRET; live HEK293 cells co-transfected 1:1 with KCTD-Nluc (donor) and KCTD5-Venus (acceptor); raw BRET ratio 530 nm/460 nm; room temperature; compared with Nluc-Cyto

Molecule | binding
BTBD10-Nluc (from UniProt Q9BSF8 1-475) | binds
KCTD2-Nluc (from UniProt Q14681 1-263) | binds
KCTD3-Nluc (from UniProt Q9Y597 1-815) | binds
KCTD4-Nluc (from UniProt Q8WVF5 1-259) | no binding
KCTD5-Nluc (from UniProt Q9NXV2 1-234) | binds
KCTD8-Nluc (from UniProt Q6ZWB6 1-473) | binds
KCTD12-Nluc (from UniProt Q96CX2 1-325) | no binding
KCTD16-Nluc (from UniProt Q68DU8 1-428) | binds
KCTD17-Nluc (from UniProt Q8N5Z5 1-314) | binds
SHKBP1-Nluc (from UniProt Q8TBC3 1-707) | binds
B7 | binds
B8 | binds
B9 | binds
B10 | no binding
B11 | no binding
B12 | no binding

Molecular target: KCTD5-Venus (human) (UniProt Q9NXV2)
Test: co-IP; HEK293 cells co-transfected 1:1; lysate (1% Triton-X, 150 mM NaCl); IP of Venus-tagged KCTD5 or its fragments with anti-GFP antibody and Dynabeads Protein G, 2 h, +4 °C; Western blot with anti-myc antibody
Remark: another data set of the same source

Molecule | binding
BTBD10-myc-flag (from UniProt Q9BSF8 1-475) | binds
KCTD2-myc-flag (from UniProt Q14681 1-263) | binds
KCTD3-myc-flag (from UniProt Q9Y597 1-815) | binds
KCTD4-myc-flag (from UniProt Q8WVF5 1-259) | no binding
KCTD8-myc-flag (from UniProt Q6ZWB6 1-473) | binds
KCTD12-myc-flag (from UniProt Q96CX2 1-325) | no binding
KCTD16-myc-flag (from UniProt Q68DU8 1-428) | binds
KCTD17-myc-flag (from UniProt Q8N5Z5 1-314) | binds
KCTD18-myc-flag (from UniProt Q6PI47 1-426) | binds weakly
KCTD20-myc-flag (from UniProt Q7Z5Y7 1-419) | binds
SHKBP1-myc-flag (from UniProt Q8TBC3 1-707) | binds
